According to PubChem BioAssay AID504339 (National Center for Advancing Translational Sciences (NCATS), 2011):
Out of some 390,000 compounds screened, about 17,000 (4.4%) were called active. This list was built around the results that the source calls inconclusive (neither active nor inactive); the mix of calls is not that of the screen. Calls come from the whole dose curve; as a rule, active = well fitted inhibition curve with a large enough effect; inconclusive = small, poorly fitted or top-dose-only effect; inactive = no such curve, though single readings can be large or run the other way. Potencies of inconclusive entries are doubtful fits and often do not repeat.

Molecular target: Lysine-specific demethylase 4A (Homo sapiens) (UniProt O75164)
Sequence of UniProt O75164 (O75164 whole entry, looked up, the tested form may be a part): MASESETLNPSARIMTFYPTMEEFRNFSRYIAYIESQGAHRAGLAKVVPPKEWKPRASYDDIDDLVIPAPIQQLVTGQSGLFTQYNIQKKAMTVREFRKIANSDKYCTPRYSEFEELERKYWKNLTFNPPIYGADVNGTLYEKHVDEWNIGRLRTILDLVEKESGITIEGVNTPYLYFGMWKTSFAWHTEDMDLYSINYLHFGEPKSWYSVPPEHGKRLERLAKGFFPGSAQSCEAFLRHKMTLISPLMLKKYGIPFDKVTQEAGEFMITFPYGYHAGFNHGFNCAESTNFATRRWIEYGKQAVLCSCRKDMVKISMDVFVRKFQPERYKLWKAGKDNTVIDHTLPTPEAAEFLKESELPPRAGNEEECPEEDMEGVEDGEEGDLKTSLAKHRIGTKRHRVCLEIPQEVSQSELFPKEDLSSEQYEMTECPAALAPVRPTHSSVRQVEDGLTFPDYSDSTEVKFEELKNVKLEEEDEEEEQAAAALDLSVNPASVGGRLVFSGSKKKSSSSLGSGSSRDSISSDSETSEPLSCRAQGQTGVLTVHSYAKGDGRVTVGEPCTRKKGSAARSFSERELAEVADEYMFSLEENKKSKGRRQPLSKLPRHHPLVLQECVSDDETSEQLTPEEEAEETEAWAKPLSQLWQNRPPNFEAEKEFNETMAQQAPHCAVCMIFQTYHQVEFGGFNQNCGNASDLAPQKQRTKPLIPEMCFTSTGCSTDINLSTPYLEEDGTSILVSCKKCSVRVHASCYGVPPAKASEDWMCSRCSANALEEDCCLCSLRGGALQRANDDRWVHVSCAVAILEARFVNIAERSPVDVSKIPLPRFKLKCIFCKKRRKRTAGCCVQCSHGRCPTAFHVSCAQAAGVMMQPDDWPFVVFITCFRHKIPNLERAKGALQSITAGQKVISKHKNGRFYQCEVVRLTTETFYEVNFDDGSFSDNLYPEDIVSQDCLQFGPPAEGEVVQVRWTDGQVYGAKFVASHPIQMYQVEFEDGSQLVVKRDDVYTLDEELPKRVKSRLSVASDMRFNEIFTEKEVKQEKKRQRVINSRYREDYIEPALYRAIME
Test: qHTS Assay for Inhibitors of JMJD2A-Tudor Domain; note: nearly all actives have a fitted effect of over 50% in size
Conditions: AlphaScreen JMJD2A-Tudor / H3K4me3 peptide binding; series mostly up to 114 µM
Potency is the fitted concentration of half-maximal effect; tags give direction and shape of the fitted curve.

Potency, active:
N#C/C(=C/c1ccc(N2CCOCC2)o1)c1ccc(Cl)cc1 56.2 µM
O=[N+]([O-])/C(C(Cl)=C(Cl)Cl)=C1\Nc2ccccc2O1 39.8 µM
COc1ccc(OC)c(CNC(=O)Cn2nc(C)c3c(C)n(-c4ccc(C)cc4)nc3c2=O)c1 35.5 µM
CC(=O)Nc1cccc(C(=O)N/N=C/c2cccnc2)c1 44.7 µM
COc1ccc(-n2cccc2/C=C2\C(=N)N3N=C(c4ccco4)SC3=NC2=O)cc1 14.1 µM
COCCn1c(-c2ccccc2)cnc1SCC(=O)Nc1cccc2ccccc12 50.1 µM
COCC(C)NCc1ccc(C)cc1C (centres undefined) 4.47 µM
CCOC(=O)C1Nc2ccc(C)cc2C2C=CCC12 (centres undefined) 56.2 µM
Cc1cc2ccccn2c1C(C[N+](=O)[O-])c1ccc(N(C)C)cc1 (centres undefined) 11.2 µM
N#C/C(=C/c1cn(-c2ccccc2)nc1-c1cccc(OCc2ccc(F)cc2)c1)C(=O)NCCCn1ccnc1 15.8 µM
Cc1cc(C)cc(NC(=O)Cn2nnc(-c3nc(-c4ccncc4)no3)c2N)c1 56.2 µM
O=C(COC(=O)c1ccccn1)Nc1ccccc1Cl 31.6 µM
COc1cc(CN2CCN(C(=O)c3cccc4ccccc34)CC2)cc(OC)c1O 22.4 µM
C=CCn1c(-c2c[nH]c3ccccc23)n[nH]c1=S 6.31 µM
S=c1[nH]ncc2ccccc12 50.1 µM

Potency, inactive:
O=C(O)c1cccc(NS(=O)(=O)c2cccc(C(=O)Nc3ccccc3[N+](=O)[O-])c2)c1
CC(=O)c1ccc(OCC(O)CN2CCN(c3ccc(F)cc3)CC2)cc1 (centres undefined)
Cc1ccc(CC(=O)NCCc2ccc(S(N)(=O)=O)cc2)cc1
Clc1cccc(-c2nn3c(Cn4cnc5ccccc54)nnc3s2)c1
COc1cccc(N2CCN(S(=O)(=O)c3ccc(-c4ccno4)cc3OC)CC2)c1
O=C(O)CN1CCCC1=Nc1ccccc1
Clc1ccc(-c2c(C3=NCCCN3)nnn2-c2ccc(Cl)cc2)cc1
Cc1ccc(S(=O)(=O)NCCc2cn3ccsc3n2)cc1
COc1cc(CN(C(=O)c2ccco2)C2CCS(=O)(=O)C2)cc(OC)c1OC (centres undefined)
COc1ccc(CNC(=O)C23CN(Cc4ccccc4)CC2C(c2ccc([N+](=O)[O-])cc2)=NO3)cc1 (centres undefined)
O=C(CN1CCN(c2nc(-c3ccc(F)cc3)cs2)CC1)Nc1ccc2c(c1)OCO2
CN1CCN(C(=O)c2cc(=O)c3cc(Cl)cc(Cl)c3o2)CC1

Potency, inconclusive:
COc1ccc(-c2nc(C#N)c(NCCN(C)C)o2)cc1 63.1 µM [inhibitor, partial curve]
CN1C(=O)[C@@H]2C[C@@]3([C@@]45C[C@H]6C(=O)N(C)[C@@H](Cc7ccccc7)C(=O)N6[C@@H]4Nc4ccccc45)c4ccccc4N[C@H]3N2C(=O)[C@@H]1Cc1ccccc1 50.1 µM [inhibitor, partial curve]
Cc1ccccc1CSCC(=O)NCc1ccco1 56.2 µM [inhibitor, partial curve]
COC(=O)[C@]1(Cc2ccccc2)N[C@H](c2ccc(-c3cccc(Cl)c3)c(OC)c2)[C@@H]2C(=O)N(C)C(=O)[C@@H]21 50.1 µM [inhibitor, partial curve]
CCOc1ccc(CN2CCN(Cc3cccn3-c3ncccn3)CC2CCO)cc1 (centres undefined) 5.62 µM [inhibitor, full curve]
Cc1sc2ncnc(NCc3ccco3)c2c1C 20 µM [inhibitor, full curve]
Cc1nnc2sc(-c3ccc(-c4ccc(Cl)c(C(F)(F)F)c4)o3)nn12 20 µM [inhibitor, full curve]
c1ccc(CN2CCN(CCCNc3ccc4nnc(-c5ccccc5)n4n3)CC2)cc1 25.1 µM [inhibitor, full curve, poor fit]
Cc1nnc(SCC(=O)c2ccc(S(=O)(=O)N3CCOCC3)cc2)n1-c1ccccc1 20 µM [inhibitor, full curve]
O=C(Nc1ccc2nc(SCC(=O)N3CCc4ccccc43)sc2c1)c1ccccc1F 89.1 µM [inhibitor, single point]
Cc1cc(C)n(CC(=O)N/N=C/c2ccccn2)n1 100 µM [inhibitor, single point]
Cc1cccc(N2CCN(C(=O)c3ccc(NS(=O)(=O)c4ccc5[nH]c(=O)[nH]c5c4)cc3)CC2)c1C 56.2 µM [inhibitor, partial curve]
COc1ccc(NC(=O)c2ccco2)cc1NC(=O)COc1ccc(Cl)cc1C 50.1 µM [inhibitor, partial curve]
O=C(NC(=S)Nc1ccc2oc(-c3cccnc3)nc2c1)c1cccc(Cl)c1 63.1 µM [inhibitor, partial curve, poor fit]
CC(/C=C/C1(O)C(C)CC(O)CC1(C)C)OC1OC(CO)C(O)C(O)C1O (centres undefined) 89.1 µM [inhibitor, single point]
CCCCOc1cccc(NC(=O)CSc2nccn2C)c1 100 µM [inhibitor, single point]
Cc1cc(C)cc(NC(=O)N2CCCN(Cc3c(F)cccc3Cl)CC2)c1 3.55 µM [inhibitor, partial curve, poor fit]
COc1ccc(C(=O)NC(=S)NNC(=O)c2ccc(C)cc2)cc1 39.8 µM [inhibitor, partial curve]
O=C(Cn1cc2c(n1)CCCC2)NCc1cccnc1 89.1 µM [inhibitor, single point]
Cc1ccc(C2SCCN2C(=O)c2ccc([N+](=O)[O-])cc2)cc1 (centres undefined) 79.4 µM [inhibitor, partial curve]
CCCCn1cnc2cc(NCc3ccncc3)ccc21 56.2 µM [inhibitor, partial curve]
COc1cccc(Cn2nnc(C(=O)Nc3cc(C)ccc3OC)c2N)c1 15.8 µM [inhibitor, full curve]
Cc1ccc(-c2ccc(/C=N/NC(=S)Nc3ccccc3)o2)cc1[N+](=O)[O-] 31.6 µM [inhibitor, partial curve]
O=C1N=c2ccccc2=C1c1c(O)[nH]c2c(C(F)(F)F)cccc12 8.91 µM [inhibitor, full curve]
N#Cc1nc(-c2ccc(Cl)cc2)oc1N1CCCCC1 50.1 µM [inhibitor, partial curve]
O=C(NNS(=O)(=O)c1ccccc1)C(O)(c1ccccc1)c1ccccc1 20 µM [inhibitor, partial curve]
O=C(COCc1cc(-c2ccc3c(c2)OCO3)on1)N1CCN(c2ccccc2)CC1 50.1 µM [inhibitor, partial curve]
CCn1cc(/C=N/O)c(C)n1 79.4 µM [inhibitor, single point]
COc1ccc(N2CCN(C(=O)c3cccc(NC(=O)c4nsc5ccccc45)c3)CC2)cc1 14.1 µM [inhibitor, full curve]
CC(Sc1nc2c(c(=O)[nH]1)CCCC2)C(=O)Nc1ccc(Br)cn1 (centres undefined) 56.2 µM [inhibitor, partial curve]
CCOC(=O)c1ccc(NC(=O)Nc2cc3c(cc2N2CCCC2)n(C)c(=O)n3C)cc1 28.2 µM [inhibitor, single point]
CCn1c(C)c(C)c2cc(C(=O)NCCc3ccco3)ccc21 56.2 µM [inhibitor, partial curve]
COC(=O)c1cc(NC(=O)c2nn(C)c3c2COc2ccccc2-3)cc(C(=O)OC)c1 44.7 µM [inhibitor, partial curve]
CC1=NN(c2ccccc2)C(=O)/C1=C\c1cn(CCC#N)nc1-c1ccc(Cl)cc1 20 µM [inhibitor, full curve]
CCOc1ccc(CCN2C(=S)N([C@@H](CC(C)C)CN3CCCC3CN3C(=S)NC[C@@H]3Cc3ccc(O)cc3)C[C@@H]2CC(C)C)cc1 (some centres undefined) 44.7 µM [inhibitor, partial curve]
Cc1cccn2c(=O)c3cc(C(N)=S)c(=N)n(CCCOC(C)C)c3nc12 89.1 µM [inhibitor, partial curve]
O=C(Nc1ccc(F)cc1)C(c1ccccc1)N1CCN(S(=O)(=O)c2ccccc2)CC1 (centres undefined) 20 µM [inhibitor, partial curve]
O=C(COc1ccc(/C=N/NC(=O)c2ccccc2O)cc1)Nc1ccccc1 50.1 µM [inhibitor, partial curve]
CC(=O)NCc1ccc(C(=O)CSc2nnc(-c3ccncc3)n2Cc2ccccc2)o1 25.1 µM [inhibitor, partial curve]
Cn1c(Cc2cccs2)n[nH]c1=S 39.8 µM [inhibitor, single point]
Cc1ccc(-n2c(Cc3cccn3C)nnc2SCC(=O)N2CCc3ccccc32)cc1 25.1 µM [inhibitor, full curve]
O=C1CC[C@@H]2CC3(C[C@@H]4CCN1[C@H]24)Nc1cc(Cl)ccc1NC3=NC1CCCCC1 (some centres undefined) 63.1 µM [inhibitor, partial curve]
